The list shows a part of the results. No stated cut-off is given here; in the data, active = 3.2 or more and inactive = the rest. The signal is at background level for most entries.
Legend:
Experiment in all cases: enrichment score (SH2-bound / input frequency) (ratio); bacterial display of known human phosphotyrosine sites (pTyr-Var adds point mutants) read by sequencing; higher = stronger binding; tyrosines were phosphorylated by kinases first
Details in all cases: peptide library: pTyr-Var
SHP2 C-SH2 domain E139D = biological target: SHP2 C-SH2 domain E139D
[1] = biological target: SHP2 C-SH2 domain wild-type
SHP2 N-SH2 domain L43F = biological target: SHP2 N-SH2 domain L43F
SHP2 N-SH2 domain T42A = biological target: SHP2 N-SH2 domain T42A
SHP2 N-SH2 domain T52S = biological target: SHP2 N-SH2 domain T52S
[2] = biological target: SHP2 N-SH2 domain wild-type

Measured: enrichment score
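Further: displayed peptides selected on beads carrying the immobilized SH2 domain, with library peptides lacking any tyrosine serving as negative controls.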

LEAVSYSSRYA [RNLS_Y190]
inactive: SHP2 C-SH2 domain E139D 0.873 | [1] 0.685 | SHP2 N-SH2 domain L43F 0.733 | SHP2 N-SH2 domain T42A 0.58 | SHP2 N-SH2 domain T52S 0.778 | [2] 0.737

GLTSTYVGIRK [ROBO1_Y932_A933V]
inactive: SHP2 C-SH2 domain E139D 0.989 | [1] 2.69 | SHP2 N-SH2 domain L43F 0.686 | SHP2 N-SH2 domain T42A 0.594 | SHP2 N-SH2 domain T52S 0.616 | [2] 0.829

RKVLVYDKLNV [ROR2_Y624_N620K]
inactive: SHP2 C-SH2 domain E139D 0.533 | [1] 1.06 | SHP2 N-SH2 domain L43F 0.654 | SHP2 N-SH2 domain T42A 0.49 | SHP2 N-SH2 domain T52S 0.786 | [2] 1.01

VYAADYYKLLG [ROR2_Y645]
inactive: SHP2 C-SH2 domain E139D 0.793 | [1] 0.758 | SHP2 N-SH2 domain L43F 0.918 | SHP2 N-SH2 domain T42A 0.707 | SHP2 N-SH2 domain T52S 0.88 | [2] 0.857

VFAANYFKLLG [ROR2_Y645_D644N_YF]
inactive: SHP2 C-SH2 domain E139D 2.73 | [1] 2.29 | SHP2 N-SH2 domain L43F 2.2 | SHP2 N-SH2 domain T42A 2.07 | SHP2 N-SH2 domain T52S 2.48 | [2] 2.07

VFAADYFKLLG [ROR2_Y645_YF]
inactive: SHP2 C-SH2 domain E139D 1.48 | [1] 1.24 | SHP2 N-SH2 domain L43F 1.76 | SHP2 N-SH2 domain T42A 1.37 | SHP2 N-SH2 domain T52S 1.2 | [2] 0.97

YAADYYKLLGN [ROR2_Y646]
inactive: SHP2 C-SH2 domain E139D 0.862 | [1] 0.751 | SHP2 N-SH2 domain L43F 0.767 | SHP2 N-SH2 domain T42A 0.623 | SHP2 N-SH2 domain T52S 0.483 | [2] 0.947

YAANYYKLLGN [ROR2_Y646_D644N]
inactive: SHP2 C-SH2 domain E139D 0.775 | [1] 0.721 | SHP2 N-SH2 domain L43F 0.615 | SHP2 N-SH2 domain T42A 0.563 | SHP2 N-SH2 domain T52S 0.644 | [2] 0.82

FAANFYKLLGN [ROR2_Y646_D644N_YF]
inactive: SHP2 C-SH2 domain E139D 0.584 | [1] 0.532 | SHP2 N-SH2 domain L43F 0.529 | SHP2 N-SH2 domain T42A 0.511 | SHP2 N-SH2 domain T52S 0.38 | [2] 0.72

VPVNGYQPVTA [ROR2_Y824_P828T]
inactive: SHP2 C-SH2 domain E139D 0.606 | [1] 0.601 | SHP2 N-SH2 domain L43F 0.556 | SHP2 N-SH2 domain T42A 0.534 | SHP2 N-SH2 domain T52S 0.699 | [2] 0.746

LGSWTYPKTVS [ROS1_Y144_T145P]
inactive: SHP2 C-SH2 domain E139D 0.819 | [1] 0.811 | SHP2 N-SH2 domain L43F 0.792 | SHP2 N-SH2 domain T42A 0.714 | SHP2 N-SH2 domain T52S 0.944 | [2] 0.754

FLNSIYQSRDE [ROS1_Y2227_K2228Q]
inactive: SHP2 C-SH2 domain E139D 1.31 | [1] 0.959 | SHP2 N-SH2 domain L43F 0.838 | SHP2 N-SH2 domain T42A 0.789 | SHP2 N-SH2 domain T52S 0.995 | [2] 1.01

EKQVAYCPSGR [ROS1_Y2323_K2328R]
inactive: SHP2 C-SH2 domain E139D 0.886 | [1] 0.837 | SHP2 N-SH2 domain L43F 0.599 | SHP2 N-SH2 domain T42A 0.61 | SHP2 N-SH2 domain T52S 0.695 | [2] 0.554

YGSSSYGGAGG [RPA2_Y14]
inactive: SHP2 C-SH2 domain E139D 0.618 | [1] 0.609 | SHP2 N-SH2 domain L43F 0.672 | SHP2 N-SH2 domain T42A 0.385 | SHP2 N-SH2 domain T52S 0.535 | [2] 0.718

FGSSSYRGAGG [RPA2_Y14_G15R_YF]
inactive: SHP2 C-SH2 domain E139D 0.629 | [1] 0.602 | SHP2 N-SH2 domain L43F 0.538 | SHP2 N-SH2 domain T42A 0.526 | SHP2 N-SH2 domain T52S 0.571 | [2] 0.618

FGSSSSGGAGG [RPA2_Y14_Y14S_YF]
inactive: SHP2 C-SH2 domain E139D 0.472 | [1] 0.529 | SHP2 N-SH2 domain L43F 0.74 | SHP2 N-SH2 domain T42A 0.46 | SHP2 N-SH2 domain T52S 0.554 | [2] 0.469

FGSSSYGGAGG [RPA2_Y14_YF]
inactive: SHP2 C-SH2 domain E139D 0.889 | [1] 0.608 | SHP2 N-SH2 domain L43F 0.768 | SHP2 N-SH2 domain T42A 0.706 | SHP2 N-SH2 domain T52S 0.603 | [2] 0.596

SGFESYGSSSF [RPA2_Y9_YF]
inactive: SHP2 C-SH2 domain E139D 0.506 | [1] 0.423 | SHP2 N-SH2 domain L43F 0.528 | SHP2 N-SH2 domain T42A 0.366 | SHP2 N-SH2 domain T52S 0.395 | [2] 0.617

SPFMLYQFLKQ [RPAP3_Y567_D564Y_YF]
inactive: SHP2 C-SH2 domain E139D 2.65 | [1] 2.56 | SHP2 N-SH2 domain L43F 2.41 | SHP2 N-SH2 domain T42A 2.7 | SHP2 N-SH2 domain T52S 2.55 | [2] 2.33

DMLFQYLKQIE [RPAP3_Y569_YF]
inactive: SHP2 C-SH2 domain E139D 1.24 | [1] 1.22 | SHP2 N-SH2 domain L43F 1.23 | SHP2 N-SH2 domain T42A 1.17 | SHP2 N-SH2 domain T52S 1.17 | [2] 1.21

IRTDAYVRAMT [RPE65_Y89]
inactive: SHP2 C-SH2 domain E139D 0.772 | [1] 0.647 | SHP2 N-SH2 domain L43F 0.701 | SHP2 N-SH2 domain T42A 0.584 | SHP2 N-SH2 domain T52S 0.645 | [2] 0.803

IHTDAYVRAMT [RPE65_Y89_R85H]
inactive: SHP2 C-SH2 domain E139D 0.806 | [1] 0.754 | SHP2 N-SH2 domain L43F 0.717 | SHP2 N-SH2 domain T42A 0.734 | SHP2 N-SH2 domain T52S 0.696 | [2] 0.907

IRTDAYVQAMT [RPE65_Y89_R91Q]
inactive: SHP2 C-SH2 domain E139D 0.898 | [1] 0.794 | SHP2 N-SH2 domain L43F 0.881 | SHP2 N-SH2 domain T42A 0.604 | SHP2 N-SH2 domain T52S 0.969 | [2] 0.887

ALKKPYSVLYK [RPF2_Y59_G60S]
inactive: SHP2 C-SH2 domain E139D 2.76 | [1] 2.38 | SHP2 N-SH2 domain L43F 2.48 | SHP2 N-SH2 domain T42A 1.97 | SHP2 N-SH2 domain T52S 2.53 | [2] 2.37

TQPSPYAVYRF [RPGRIP1_Y823]
inactive: SHP2 C-SH2 domain E139D 0.938 | [1] 0.754 | SHP2 N-SH2 domain L43F 0.517 | SHP2 N-SH2 domain T42A 0.612 | SHP2 N-SH2 domain T52S 0.625 | [2] 0.792

TQPSPYAVYLF [RPGRIP1_Y823_R827L]
inactive: SHP2 C-SH2 domain E139D 0.993 | [1] 1.41 | SHP2 N-SH2 domain L43F 1.23 | SHP2 N-SH2 domain T42A 1.16 | SHP2 N-SH2 domain T52S 1.29 | [2] 1.34

TQPSPYAVFLF [RPGRIP1_Y823_R827L_YF]
inactive: SHP2 C-SH2 domain E139D 0.745 | [1] 0.752 | SHP2 N-SH2 domain L43F 0.735 | SHP2 N-SH2 domain T42A 0.851 | SHP2 N-SH2 domain T52S 0.651 | [2] 0.885

TQPSPYAVFRF [RPGRIP1_Y823_YF]
inactive: SHP2 C-SH2 domain E139D 0.974 | [1] 0.992 | SHP2 N-SH2 domain L43F 1.09 | SHP2 N-SH2 domain T42A 1.42 | SHP2 N-SH2 domain T52S 1.04 | [2] 0.82

SPYAVYLFFTF [RPGRIP1_Y826_R827L]
inactive: SHP2 C-SH2 domain E139D 0.681 | [1] 0.932 | SHP2 N-SH2 domain L43F 0.802 | SHP2 N-SH2 domain T42A 0.706 | SHP2 N-SH2 domain T52S 0.621 | [2] 0.715

KRIKLYNQEND [RPGRIP1L_Y448]
inactive: SHP2 C-SH2 domain E139D 1.02 | [1] 0.769 | SHP2 N-SH2 domain L43F 0.788 | SHP2 N-SH2 domain T42A 0.787 | SHP2 N-SH2 domain T52S 0.74 | [2] 0.769

ICANKYMVESC [RPL10_Y75_K78E]
inactive: SHP2 C-SH2 domain E139D 1.78 | [1] 1.65 | SHP2 N-SH2 domain L43F 2.1 | SHP2 N-SH2 domain T42A 1.71 | SHP2 N-SH2 domain T52S 1.77 | [2] 1.7

RRGTRYMSSRP [RPL21_Y13_F15S]
inactive: SHP2 C-SH2 domain E139D 0.187 | [1] 0.176 | SHP2 N-SH2 domain L43F 0.238 | SHP2 N-SH2 domain T42A 0.307 | SHP2 N-SH2 domain T52S 0.305 | [2] 0.228

VPLATYMQIFK [RPL21_Y30_R32Q_YF]
inactive: SHP2 C-SH2 domain E139D 1.32 | [1] 0.75 | SHP2 N-SH2 domain L43F 0.988 | SHP2 N-SH2 domain T42A 0.865 | SHP2 N-SH2 domain T52S 0.811 | [2] 0.725

GEKKAYVRLAP [RPL23A_Y137]
inactive: SHP2 C-SH2 domain E139D 0.829 | [1] 0.853 | SHP2 N-SH2 domain L43F 0.816 | SHP2 N-SH2 domain T42A 0.757 | SHP2 N-SH2 domain T52S 0.651 | [2] 0.9

GDKKAYVRLAP [RPL23A_Y137_E133D]
inactive: SHP2 C-SH2 domain E139D 0.696 | [1] 0.605 | SHP2 N-SH2 domain L43F 0.548 | SHP2 N-SH2 domain T42A 0.593 | SHP2 N-SH2 domain T52S 0.543 | [2] 0.695

FKGKNYKPLDL [RPL35_Y78_K77N_YF]
inactive: SHP2 C-SH2 domain E139D 0.988 | [1] 0.785 | SHP2 N-SH2 domain L43F 0.808 | SHP2 N-SH2 domain T42A 0.718 | SHP2 N-SH2 domain T52S 0.931 | [2] 0.723

FKGKKYKPLDL [RPL35_Y78_YF]
inactive: SHP2 C-SH2 domain E139D 0.516 | [1] 0.462 | SHP2 N-SH2 domain L43F 0.614 | SHP2 N-SH2 domain T42A 0.49 | SHP2 N-SH2 domain T52S 0.427 | [2] 0.494
